The whole screen tested about 44,000 compounds, of which about 340 (0.77%) were called active. Inconclusive results (about 5%) are left out. Calls come from the whole dose curve; as a rule, active = well fitted inhibition curve with a large enough effect; inconclusive = small, poorly fitted or top-dose-only effect; inactive = flat fitted curve, though single readings scatter. The list shows a part of the results.
assay: Acumen qHTS Assay for Inhibitors of the mTORC1 Signaling Pathway in MEF (Tsc2-/-, p53-/-) Cells: Sytravon; details: phospho-rpS6 immunofluorescence/PI, 24 h; series mostly up to 38.3 µM; activity change, negative = inhibition: at the top concentration;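 note: plate controls were DMSO for no effect and rapamycin for full effect; nearly all actives have a fitted effect of over 50% in size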
In short: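 Cell-based qHTS: Tsc2-/- p53-/- MEF, 24 h cpd, 37 °C; fix/perm, anti-phospho-S6 Alexa-488 + PI; Acumen 488 nm scan; pS6/PI ratio, % positive cells; rapamycin 7.5 nM = inhibition ref; PI count = viability.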

Activity change, negative = inhibition, inactive:
CCOc1ccc(CNC(=O)C2CCN(c3nn4c(=O)cc(C)nc4s3)CC2)cc1 4.4%, CC1CC(=O)N(CC(=O)Nc2ccc(F)cc2F)c2ccccc2S1 (stereo unspecified) -1.57%, CCOc1ccc(/C=C/c2nc(C#N)c(Nc3ccc(OCC)cc3)o2)cc1 -1.06%, Cn1c(=O)[nH]c(=O)c2c1nc(NCCO)n2CC(O)COc1ccccc1 (stereo unspecified) 4.07%, Cc1c(-c2ccccc2)c(=O)oc2c(CN3CCCC3)c(O)ccc12 16%, CCc1ccc(C2CC(=O)NC(NC(=O)c3ccc(C(C)(C)C)cc3)=N2)cc1 (stereo unspecified) 0.336%, Cc1nc2ccn(Cc3ccccc3)c(=O)c2cc1C(=O)NCc1ccccc1F -20.6%, COc1ccc(NC(=O)Nc2cccc(-c3cn4cccnc4n3)c2)cc1 0.109%, O=C(NCCc1ccc(Cl)cc1)c1ccc2c(c1)N(Cc1ccccc1F)C(=O)c1ccccc1S2(=O)=O -1.27%, CCOc1ccc(NC(=O)Cn2c(=O)n(Cc3ccc(C(=O)NCc4ccc(C)cc4)cc3)c(=O)c3ccccc32)cc1 1.19%, COc1cccc(CNC(=O)CN2C(=O)COc3ccc(S(=O)(=O)N4CCCCCC4)cc32)c1 -0.983%, CCc1cccc(NC(=O)Cn2c(=O)n(CCC(=O)NCC3CCCO3)c(=O)c3cc(OC)c(OC)cc32)c1 (stereo unspecified) 1.93%, Cc1ccc(-c2nc3ncccc3o2)cc1NC(=O)c1ccccc1Br -3.99%, CN(C)c1ccc(NC(=O)CN2CCN(CC(=O)Nc3ccc(Br)cc3)CC2)cc1 0.534%, Cc1ccc(CNC(=O)c2cc3c(s2)-c2ccc(Cl)cc2SC3)cc1 3.04%, Cc1ccc(CSC2=Nc3ccccc3C3=NC(CC(=O)NCc4cccs4)C(=O)N23)cc1 (stereo unspecified) 4.77%, COc1ccc(C(=O)Nc2nnc(S(=O)(=O)N3CCC(C)CC3)s2)cc1OC 0.521%, O=C(c1cccc(F)c1)N1CCC(c2c[nH]c3ccccc23)(c2c[nH]c3ccccc23)CC1 -4.06%, CCN(C(=O)C1CCCN(c2ncnc3onc(-c4ccc(F)cc4)c23)C1)c1ccccc1 (stereo unspecified) 0.0385%, O=C(NCC1CCCO1)c1c[nH]c2ccc(S(=O)(=O)Nc3ccc(F)cc3F)cc2c1=O (stereo unspecified) -11.4%, CCOc1ccc(NC(=O)NCCn2nnc3cc(S(=O)(=O)N(C)C)ccc32)cc1 0%, CC(C)(C)c1ccc(-c2nc(S(=O)(=O)c3ccccc3)c(N3CCOCC3)o2)cc1 -22.7%, CC1CCCCN1Cc1c(O)ccc2c(=O)c(-c3ccccc3)coc12 (stereo unspecified) 1.13%, CCOC(=O)C1=C(CN2CCCCC2)NC(=O)NC1c1ccc(C)cc1 (stereo unspecified) -10.3%, COc1cccc(CNS(=O)(=O)c2ccc(N3CCCCS3(=O)=O)cc2)c1 0%, COc1ccc(Cn2ccc3nc(C)c(C(=O)NCc4ccc(OC)cc4OC)cc3c2=O)cc1 -11%
